Experimental data: PubChem BioAssay (NCATS)
Where “and” joins values, the source holds several entries; their conditions need not be identical. Identical values can stand only once. This list was built around the results that the source calls inconclusive (neither active nor inactive); the mix of calls is not that of the screen. For some of these results: Potencies beside an inconclusive call are fits to weak or partial responses and may not hold up. Calls of active or inactive are those of the source. The call rests on the fitted dose curve; in most records, active means well fitted curve in the direction sought with a large enough effect; inconclusive means small, poorly fitted or top-dose-only effect, or another doubt; inactive means no such curve, though single readings can be large; an effect the other way counts as inactive or inconclusive.

What was measured:
Furin (Homo sapiens) = Furin (Homo sapiens) (UniProt P09958); assay: Furin counterscreen qHTS for Zika virus inhibitors (AID 1347149); further: nearly all actives have a fitted effect of over 70% in size
UniProt P09958, sequence (P09958 whole entry, looked up): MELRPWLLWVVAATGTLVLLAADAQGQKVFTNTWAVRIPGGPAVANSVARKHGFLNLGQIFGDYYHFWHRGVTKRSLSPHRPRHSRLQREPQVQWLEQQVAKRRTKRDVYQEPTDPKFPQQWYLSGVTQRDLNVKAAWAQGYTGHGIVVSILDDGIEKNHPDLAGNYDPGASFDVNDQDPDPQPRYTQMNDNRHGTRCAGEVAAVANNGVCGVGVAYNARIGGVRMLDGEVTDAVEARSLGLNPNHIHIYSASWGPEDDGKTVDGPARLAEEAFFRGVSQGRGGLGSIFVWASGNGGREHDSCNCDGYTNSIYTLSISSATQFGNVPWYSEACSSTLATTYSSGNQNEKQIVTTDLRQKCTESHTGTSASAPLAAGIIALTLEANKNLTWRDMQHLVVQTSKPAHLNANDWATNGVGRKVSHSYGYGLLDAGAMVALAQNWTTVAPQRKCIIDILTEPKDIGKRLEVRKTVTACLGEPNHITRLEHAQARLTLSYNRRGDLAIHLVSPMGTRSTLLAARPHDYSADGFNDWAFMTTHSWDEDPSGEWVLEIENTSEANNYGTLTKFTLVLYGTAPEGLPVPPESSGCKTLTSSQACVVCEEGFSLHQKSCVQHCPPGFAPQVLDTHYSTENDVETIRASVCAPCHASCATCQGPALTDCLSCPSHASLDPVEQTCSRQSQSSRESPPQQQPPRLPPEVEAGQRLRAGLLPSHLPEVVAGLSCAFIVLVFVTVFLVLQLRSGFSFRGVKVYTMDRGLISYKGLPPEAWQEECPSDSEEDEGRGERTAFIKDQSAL
In short: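 Counterscreen measures cleavage of 2 microM BOC-RVRR-AMC, below its ~15 microM Km, by 5 nM full-length human furin at pH 7.0 after a 15-min compound preincubation. Inhibition derives from the 15-min fluorescence increase at 37C.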

[1] = system: Zika virus NS2B-NS3 protease (unlinked); assay: Optimization of GU AMC qHTS for Zika virus inhibitors: Unlinked NS2B-NS3 protease assay (AID 1347151); further: nearly all actives have a fitted effect of over 80% in size
In short: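 Unlinked protease (25 nM final); buffer 10 mM Tris-HCl pH 8.0 + 0.01% Tween 20; AMC substrate; 15 min RT, dark; Δfluorescence normalized to no-inhibitor/no-enzyme controls; 4-parameter Hill fit.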

[2] = system: Zika virus NS2B-NS3 protease (unlinked complex); assay: Confirmatory screen GU AMC qHTS for Zika virus inhibitors (AID 1347153); further: nearly all actives have a fitted effect of over 70% in size;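 on Potency: enzyme at 25 nM with substrate at 10 µM below its Km of 18.3 µM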
In short: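 Fluorescence change (ex 340/em 450 nm) over 15 min, ~20% substrate conversion, normalized to no-inhibitor and no-enzyme controls, then Hill-fitted. Unlinked protease at 25 nM; AMC peptide 10 µM.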

[3] = system: Zika virus NS2B-NS3 protease; assay: Primary screen GU AMC qHTS for Zika virus inhibitors (AID 1347154); further: nearly all actives have a fitted effect of over 70% in size
In short: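 Unlinked Zika NS2B hydrophilic domain–NS3 protease complex at 25 nM in 10 mM Tris-HCl pH 8.0, 0.01% Tween 20, with an AMC peptide substrate. Fluorescence change (340/450 nm) over 15 min at room temperature, normalized to controls, fitted to 4-parameter Hill.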

[4] = ZIKV-mCherry secondary qHTS for Zika virus inhibitors (AID 1347158)
In short: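 Compounds were tested in Vero monkey kidney cells infected with recombinant mCherry-expressing Zika virus at MOI 1 for 48-72 h at 37 °C. Fixed cells were nuclear-stained and imaged, and infection rate was taken as the fraction of mCherry-positive cells.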

[5] = Vero cells viability qHTS for Zika virus inhibitors (AID 1347167); conditions: cytotoxicity counter-screen (Zika)
In short: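 qHTS titration; 24-48 h compound exposure, 37 degrees C/5% CO2; DMEM, 4% FBS; CellTiter Glo ATP luminescence.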

[6] = Confirmatory screen NINDS Rhodamine qHTS for Zika virus inhibitors (AID 1347161); conditions: purified enzyme assay, Rhodamine110 substrate fluorescence, 15 min; series mostly up to 114 µM; further: nearly all actives have a fitted effect of over 60% in size
In short: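 Single-chain NS2B-NS3 protease, 25 nM, pH 8.0; compounds preincubated 15 min. Activity: Rhodamine110 release from 1.5 microM substrate over 15 min, room temperature, data fitted to 4-parameter Hill.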

[7] = system: Zika virus NS2B-NS3 protease (linked); assay: 384 well plate NINDS AMC confirmatory qHTS for Zika virus inhibitors (AID 1347163); conditions: Recombinant NS2B-NS3 protease, Ac-VKTGKR-AMC fluorescence; further: nearly all actives have a fitted effect of over 50% in size
In short: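 Fluorescence at 355/460 nm was read after 25 minutes of cleavage of 30 microM Ac-VKTGKR-AMC at room temperature, in the dark. Before substrate addition, compounds (up to 1 mM final) sat ~15 minutes with 5, 30 or 60 nM linked protease. Signals were normalized to no-enzyme and no-inhibitor wells.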

[8] = system: Zika virus NS2B-NS3 protease (linked construct); assay: 384 well plate NINDS Rhodamine confirmatory qHTS for Zika virus inhibitors (AID 1347164);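 further: fluorescence from protease cleavage of Ac-LKRR-rhodamine 110 substrate; nearly all actives have a fitted effect of over 65% in size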
In short: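 Enzyme (final 5/30/60 nM) + cpd (DMSO), ~15 min; add Ac-LKRR-Rd 10 microM final; 25 min RT, dark; FI ex 485/em 538; normalized to no-enzyme, no-inhibitor ctrls; aprotinin intraplate ctrl.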
Potency means the concentration at half of the fitted maximal effect; tags describe the fitted curve by direction and shape.

## O=C(c1ccc(F)cc1)C1CCN(CCn2c(=O)[nH]c3ccccc3c2=O)CC1
Furin (Homo sapiens)
  Potency: inactive
[1]
  Potency: inconclusive: 21.2 µM [inhibitor, single point]
[2]
  Potency: inactive
[3]
  Potency: inconclusive: 2.41 µM [inhibitor, partial curve] and inconclusive: 16.8 µM [inhibitor, partial curve]

## c1cc(OCCN2CCCCC2)cc(-c2n[nH]c3ccc(-c4ncn[nH]4)cc23)c1
[2]
  Potency: inconclusive: 27.1 µM [inhibitor, partial curve, poor fit]
[3]
  Potency: active: 24.1 µM

## CC(C)c1onc(-c2c(Cl)cccc2Cl)c1COc1ccc(C=Cc2cccc(C(=O)O)c2)c(Cl)c1
Furin (Homo sapiens)
  Potency: active: 30.4 µM
[3]
  Potency: active: 13.6 µM
[4]
  Potency: inconclusive: 2.82 µM [inhibitor, full curve]
[5]
  Potency: inconclusive: 29.4 µM [cytotoxic, single point]

## O=C(O)c1cn(C2CC2)c2cc(N3CCNCC3)c(F)cc2c1=O
[2]
  Potency: inconclusive: 24.1 µM [inhibitor, partial curve]
[6]
  Potency: inconclusive: 27.7 µM [inhibitor, partial curve, poor fit]

## COc1cc2c(cc1-c1c(C)noc1C)ncc1[nH]c(=O)n([C@H](C)c3ccccn3)c12
[6]
  Potency: inactive

## O=C(Nc1cccc2c(=O)cc(-c3nn[nH]n3)oc12)c1ccc(OCCCCc2ccccc2)cc1
[6]
  Potency: active: 1.75 µM
[7]
  Potency: active: 28.2 µM
[8]
  Potency: inconclusive: 39.8 µM [inhibitor, full curve, poor fit]
